Hit rate of the full screen: of about 45,000 compounds, about 65 (0.1%) were called active. The call rests on the fitted dose curve; in most records, active means well fitted activation curve with a large enough effect; inconclusive means small, poorly fitted or top-dose-only effect; inactive means no such curve, though single readings can be large or run the other way. This is one part of the list.
Each molecule was assayed against Galactocerebrosidase (Homo sapiens) (UniProt P54803) (assay: A Novel Cell-Based Assay to Identify Small Molecules for B -Galactocerebrosidase). Settings: 145M-Twi-hGALC-G270D cells (Twitcher mouse brain line with human GALC G270D), HMU-beta-Gal fluorescence, 48 h; series mostly up to 57.5 µM; activation: at the top concentration.
Chain of UniProt P54803 (P54803 whole entry, looked up): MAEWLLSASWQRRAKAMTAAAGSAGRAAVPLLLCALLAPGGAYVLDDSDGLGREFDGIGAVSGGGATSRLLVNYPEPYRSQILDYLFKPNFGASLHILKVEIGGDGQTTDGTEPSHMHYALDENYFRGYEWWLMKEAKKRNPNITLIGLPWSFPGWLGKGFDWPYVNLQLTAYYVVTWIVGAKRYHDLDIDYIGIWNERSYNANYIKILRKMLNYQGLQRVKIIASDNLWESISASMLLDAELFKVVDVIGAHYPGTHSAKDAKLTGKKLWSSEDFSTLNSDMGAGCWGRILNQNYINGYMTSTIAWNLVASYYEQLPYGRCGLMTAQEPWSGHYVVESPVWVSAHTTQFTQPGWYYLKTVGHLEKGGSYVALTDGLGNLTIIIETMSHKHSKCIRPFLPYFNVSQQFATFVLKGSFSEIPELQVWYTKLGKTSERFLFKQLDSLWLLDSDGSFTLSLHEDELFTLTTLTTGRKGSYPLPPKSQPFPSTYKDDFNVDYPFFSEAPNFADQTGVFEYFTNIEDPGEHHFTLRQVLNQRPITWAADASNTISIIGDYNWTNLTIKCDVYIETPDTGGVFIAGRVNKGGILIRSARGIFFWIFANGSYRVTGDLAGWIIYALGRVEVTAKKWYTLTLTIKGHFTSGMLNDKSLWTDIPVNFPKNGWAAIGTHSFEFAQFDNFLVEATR
Procedure, shortened: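 Fluorogenic HMU-b-Gal hydrolysis (0.1 mM final, pH 5.2 citrate-phosphate with 1 mg/mL sodium taurocholate; carbonate stop buffer) measures mutant GALC activity after compound treatment of live 145M-Twi Twitcher brain cells stably carrying human GALC-G270D, with wild-type GALC line alongside; activation sought.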
In the case of `CCn1c(C(=O)N2CCCC(C(=O)N3CCN(c4cc(C)ccc4C)CC3)C2)cc2sccc21` (stereo not drawn), the “activation” value is reported as inactive: -42.2%. `Cc1ccccc1CCNC(=O)c1cc2cc(S(=O)(=O)N3CCCCC3)ccc2n1C` was tested, and the “activation” value was inactive: 4.66%. With `COc1ccc(-n2c(=O)c3ccccc3n(CC(=O)NCCc3ccc(OC)c(OC)c3)c2=O)cc1` the “activation” value was inactive: -10.4%. For `COc1cc2c(cc1OC)C(COc1cc(C)cc(C)c1)N(C(=O)COc1ccccc1)CC2` (stereo not drawn), the “activation” value was inactive: -24.3%. In the case of `COc1ccc(Cl)cc1NC(=O)CCCN1C(=O)C(c2ccccc2)Oc2cccnc21` (stereo not drawn), the “activation” value is reported as inactive: -7.44%. In the case of `COc1ccc(NC(=O)c2cc3c(=O)n(Cc4cccnc4)ccc3nc2C)cc1OC`, the “activation” value is reported as inactive: -11.8%. With `COc1ccc(NC(=O)CSc2nc3nc(C)c(Cc4ccccc4Cl)c(C)n3n2)cc1OC` the “activation” value was inactive: -7.02%. In the case of `COc1ccc(C)cc1NS(=O)(=O)c1cc2c3c(c1)CC(=O)N3CCC2`, the “activation” value is reported as inactive: -8.54%. With `CCn1c(=N)c(C(=O)NC2CCCCC2)cc2c(=O)n3cc(C)ccc3nc21` the “activation” value was inactive: 5.23%. `Cc1ccc(C2=Nc3ccccc3N(CC(=O)NCc3ccccc3Cl)C(=O)C2)cc1C` was tested, and the “activation” value was inactive: -11.3%. For `COc1ccc(N2Cc3cccc(C(=O)Nc4ccc(F)cc4)c3C2=O)cc1`, the “activation” value was inactive: -19.3%. In the case of `COc1ccc(-n2ncc(C(=O)Nc3cccc(C(F)(F)F)c3)c2C2CCN(C(=O)OC(C)(C)C)CC2)cc1`, the “activation” value is reported as inactive: -3.12%. `CCOCCCN(Cc1ccco1)S(=O)(=O)c1cc2c(cc1C)NC(=O)CO2` was tested, and the “activation” value was inactive: -15.1%. With `Cc1c(C(=O)NCCc2ccc(Cl)cc2)sc2nc3n(c(=O)c12)CCCC3` the “activation” value was inactive: -14.6%. With `CC(C)C(=O)NCC(c1ccc2c(c1)OCO2)N1CCN(c2ccccc2)CC1` (stereo not drawn) the “activation” value was inactive: -12.9%. In the case of `Cc1ccccc1CN1c2ccccc2-c2nc(SCC(=O)NCc3ccccc3)ncc2S1(=O)=O`, the “activation” value is reported as inactive: -4.91%. For `CCN1CCCC1CN` (stereo not drawn), the “activation” value was inactive: -11.5%. For `O=C(Nc1c(C(=O)N2CCN(c3ccccc3)CC2)oc2ccccc12)c1ccco1`, the “activation” value was inactive: -15%. `Cc1cccc(-c2noc(CSc3nc(-c4ccc(F)cc4)cc(=O)[nH]3)n2)c1` was tested, and the “activation” value was inactive: -6.85%. In the case of `COc1ccc(CCNC(=O)C(=O)NCC(c2ccc3c(c2)OCO3)N2CCOCC2)cc1OC` (stereo not drawn), the “activation” value is reported as inactive: -8.85%. `Cc1cccn2c(=O)c(C(=O)NCCc3ccccc3)c(O)nc12` was tested, and the “activation” value was inactive: -20.6%. For `Cc1ccc2nc(CNC(=O)c3ccccc3)[nH]c2c1`, the “activation” value was inactive: 4.45%. In the case of `CCOc1ccc(NC(=O)c2oc3ccccc3c2NC(=O)c2c(F)cccc2F)cc1`, the “activation” value is reported as inactive: -7.67%. For `Cc1ccc(CSC2=Nc3ccccc3C3=NC(CC(=O)NC4CCCCC4)C(=O)N23)cc1` (stereo not drawn), the “activation” value was inactive: -9.34%. With `CCCN(CCC)S(=O)(=O)c1ccc2c(c1)N(CC(=O)NC(C)c1ccccc1)C(=O)CS2` (stereo not drawn) the “activation” value was inactive: -8.8%. In the case of `COc1ccc(CNC(=O)c2cc(Nc3ccc(C)cc3C)nc3ccccc23)cc1`, the “activation” value is reported as inactive: -10.4%. With `Cc1ccc(NC(=O)C(=O)c2cc(C)n(-c3ccc(F)cc3)c2C)cc1C` the “activation” value was inactive: -8.46%. For `CCOc1ccc(NC(=O)C2CCCN(S(=O)(=O)c3ccc4[nH]c(=O)ccc4c3)C2)cc1` (stereo not drawn), the “activation” value was inactive: -1.53%. In the case of `COc1ccccc1N1CCN(C(=O)CSc2nc3ccccc3nc2Cc2ccccc2)CC1`, the “activation” value is reported as inactive: -15.9%. `COc1cccc(-n2ccn(CC(=O)c3ccc(F)cc3)c(=O)c2=O)c1` was tested, and the “activation” value was inactive: -23.9%. In the case of `CC(=O)c1ccc(N2C(=O)N(CC(=O)c3ccc(C)cc3)c3ccccc3S2(=O)=O)cc1`, the “activation” value is reported as inactive: -3.49%. In the case of `CCN(c1cccc(C)c1)S(=O)(=O)c1nnc(NC(=O)c2ccccc2Cl)s1`, the “activation” value is reported as inactive: -10.4%. `Cc1ccc2nc(-c3ccc(NC(=O)COc4ccccc4)cc3)sc2c1` was tested, and the “activation” value was inactive: -4.67%. For `COc1ccccc1N1CCN(C(=O)c2cc(-c3ccc(F)cc3)on2)CC1`, the “activation” value was inactive: -3.53%. For `Cc1ccc(OCCn2nnc3sc4c(c3c2=O)CCC(C)C4)cc1` (stereo not drawn), the “activation” value was inactive: -6%. In the case of `CCc1c(-c2ccccc2)nc2ccccc2c1C(=O)NCc1ccc(C)cc1`, the “activation” value is reported as inactive: -6.49%. For `CN(C1CCCCC1)S(=O)(=O)c1ccc2c(c1)c(=O)c(C(=O)N1CCN(c3ccccc3F)CC1)cn2C`, the “activation” value was inactive: -16.1%. `CCOc1ccc(C(=O)N2CCC(c3noc(-c4ccc(S(=O)(=O)N5CCCC5)cc4)n3)CC2)cc1` was tested, and the “activation” value was inactive: 2.47%. With `Cc1cc(C)cc(NS(=O)(=O)c2ccc3[nH]cc(C(=O)NCc4ccccc4Cl)c(=O)c3c2)c1` the “activation” value was inactive: 2.18%. With `O=C(CSc1nnc(-c2ccc([N+](=O)[O-])cc2)o1)Nc1ccccc1` the “activation” value was inactive: -13%. `Cc1ccc(-c2nc(Cn3c(=O)cc(-c4ccccc4)c4c(C)nn(C)c43)c(C)o2)cc1` was tested, and the “activation” value was inactive: -20.1%. `COc1cc(NC(=O)Cn2c(=O)n(Cc3ccco3)c(=O)c3oc4ccccc4c32)cc(OC)c1` was tested, and the “activation” value was inactive: -1.87%. For `CSc1cccc(NS(=O)(=O)c2cn(C)c(C)n2)c1`, the “activation” value was inactive: -21.8%. With `Cn1cnc(S(=O)(=O)N2CCC(C(=O)N3CCN(c4ccccc4F)CC3)CC2)c1` the “activation” value was inactive: -15.4%. In the case of `CCOc1ccc(NC(=O)c2cc(=O)c3ccc(C)c(C)c3o2)cc1`, the “activation” value is reported as inactive: -14.2%. In the case of `O=C(Nc1ccc(Br)cc1F)N1CCC2(CC1)Oc1ccccc1C(=O)N2Cc1ccccc1F`, the “activation” value is reported as inactive: -6.71%. In the case of `CCN(c1ccccc1)c1nnc(NC(=O)Nc2ccc(Br)cc2F)s1`, the “activation” value is reported as inactive: -18.6%. `O=C1CSC2(C(=O)N(Cc3ccccc3)c3ccccc32)N1c1ccc(Cl)cc1` (stereo not drawn) was tested, and the “activation” value was inactive: -8.61%.
Further: 0% is about no effect; nearly all actives have a fitted effect of over 65% in size.
